# Reference: PubChem BioAssay (NCI)
# Where “and” joins values, the source holds several entries; their conditions need not be identical. Equal values may be shown once.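 Following 48 hours of exposure in 96-well plates, responses at five concentrations were used to interpolate endpoints linearly. At the GI50, growth is halved. TGI denotes the concentration required for complete inhibition of growth.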
# System: NCI-H322M lung
# Assay: inhibition of tumour cell growth, NCI panel, 48 h
Compound,GI50,TGI
O=C(c1ccc(Cl)cc1)C1[C@H](c2ccc(Br)cc2)[C@@H](c2ccccc2)NC12C(=O)Nc1ccc(Br)cc12 (stereo partly specified),3.89 µM,10.3 µM
CCNCCCn1c2c(c3cc(OC)c(OC)cc3c1=O)C(=O)c1cc3c(nc1-2)OCO3,4.02 µM,18.1 µM
CSc1ccc(C(=O)Nc2ccc3nn(/C(C#N)=C/c4ccccn4)nc3c2)cc1,5.34 µM,11.3 µM
CC1=C(c2cc(-c3ccc(Cl)cc3)c(C#N)c(N)n2)C(c2ccccc2)NC(=S)N1 (stereo unspecified),20 µM,50.9 µM
COC(=O)CNC(=O)COc1c(OC)c(OC)cc2oc(-c3cccc(C(=O)Nc4ccc(Cl)cc4)c3)cc(=O)c12,12.5 µM,39.6 µM
CN1CCN(C(=O)Oc2cc3c(c4ccccc24)[C@H](CCl)CN3C(=O)c2cc3cc(OCCCN4CCC4)ccc3[nH]2)[C@H]2CSSC[C@H]21,0.018 µM and 0.0135 µM,0.0575 µM and 0.0782 µM
COc1c(B(O)O)cc(F)cc1-c1nc2c(F)cc3[nH]ncc3c2c2c1CCCC2,10.3 µM,87.8 µM
COc1cc2c3c(n(CCCNC(C)C)c(=O)c2cc1OC)-c1nc2c(cc1C3=O)OCO2,9.1 µM,21.4 µM
